Activity change, negative = inhibition data for 30 compounds are collected here from PubChem BioAssay AID1745853 (National Center for Advancing Translational Sciences (NCATS), 2022).

“And” between values parts separate entries of the source, which are not always exact repeats. Equal entries are not always repeated. The list shows a part of the results. Further columns of the screen follow, without active or inactive calls.

Holding throughout (experiment): Primary Screen for Target Class Profiling of Small Molecule Inhibitors of Methyltransferases
In assay [1] the target is Glycine N-methyltransferase (Homo sapiens) (UniProt Q14749). The following applies: purified enzyme, MTase-Glo SAH luminescence; measured here: GNMT inhibition; at 40 µM; stronger effect = lower value. In a few lines: (§1)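 Each enzyme was reacted with SAM and its substrate, with compounds tested once at 40 uM; SAH formed was read by MTase-Glo luminescence.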
For assay [2], the target named is Guanidinoacetate N-methyltransferase (Homo sapiens) (UniProt Q14353). The conditions noted are these: purified enzyme, MTase-Glo SAH luminescence; measured here: GAMT inhibition; at 40 µM; stronger effect = lower value. In outline:
as §1

In assay [3] the target is Histamine N-methyltransferase (Homo sapiens) (UniProt P50135). The following applies: purified enzyme, MTase-Glo SAH luminescence; measured here: HNMT inhibition; at 40 µM; stronger effect = lower value. In outline:
as §1

For assay [4], the target named is Nicotinamide N-methyltransferase (Homo sapiens) (UniProt P40261). The following applies: purified enzyme, MTase-Glo SAH luminescence; measured here: NNMT inhibition; at 40 µM; stronger effect = lower value. In outline: as §1
Assay [5] concerns the target Phenylethanolamine N-methyltransferase (Homo sapiens) (UniProt P11086). The conditions noted are these: purified enzyme, MTase-Glo SAH luminescence; measured here: PNMT inhibition; at 40 µM; stronger effect = lower value. In a few lines: as §1
% is scaled to controls: 0 for no effect and ±100 for the full control effect.

Regarding `COc1ccc2cc3n(c2c1)CC(C)(C(=O)NC1CCCC1)N(Cc1ccc2c(c1)OCO2)C3=O` (configuration not stated), the activity change, negative = inhibition in assay [1] was -6.32%; in assay [2] it was -2.67%; in assay [3] it was -1.44%; in assay [4] it was -9.02%; in assay [5], -3.65%.
For the compound `Cc1nnc2ccc(N3CCC(NC(=O)C(C)C)CC3)nn12`, the activity change, negative = inhibition was 0.125% in assay [1]; 2.98% in assay [2]; 1.36% in assay [3]; -6.02% in assay [4]; 0.666% in assay [5].
For `Cc1ccc(S(=O)(=O)NCCc2nc(-c3ccc4c(c3)ncn4C)no2)cc1`, the activity change, negative = inhibition stood at 5.54% in assay [1]; 0% in assay [2]; 11.2% in assay [3]; 1.18% in assay [4]; 7.35% in assay [5].
Consider `C=CCn1c(=O)c2ccc(C(=O)NC(C)C)cc2n2c(=O)n(CC(=O)Nc3cccc(CC)c3)nc12`, for which the activity change, negative = inhibition in assay [1] was found to be 6.16%; in assay [2], 1.33%; in assay [3] it was 9.86%; in assay [4], 2.49%; in assay [5] it was 9.61%.
On to `O=C(COc1ccc(-c2nnc3n2CCCC3)cc1)NCc1ccccc1Br`, for which the activity change, negative = inhibition in assay [1] is -6.35%; in assay [2], -4.53%; in assay [3], -8.14%; in assay [4], -14%; in assay [5], -9.32%.
Turning to `O=C(CCc1nnc2n(Cc3ccc(Cl)cc3)c(=O)c3ccccc3n12)NCCC1=CCCCC1`, the activity change, negative = inhibition in assay [1] is -15% and -5.05%; in assay [2], -19.8% and 1.24%; in assay [3], -16.4% and 6.63%; in assay [4] it was -18.7% and -8.38%; in assay [5] it was -13.1% and 1.92%.
For `CCCC(C(=O)O)c1c(C)nc2ccc(Cl)cc2c1-c1ccccc1` (configuration not stated), the activity change, negative = inhibition was -8.43% in assay [1]; -0.373% in assay [2]; 5.78% in assay [3]; -37.2% in assay [4]; -1.84% in assay [5].
Consider `CC(O)C1CCC2C3CCC4CC(OC5OC(C(=O)O)C(O)C(O)C5O)CCC4(C)C3CCC12C` (configuration not stated), for which the activity change, negative = inhibition in assay [1] was -29.2%; in assay [2], 2.67%; in assay [3], -5.38%; in assay [4], -38.9%; in assay [5] it was -13.1%.
With `O=C(CCn1cncn1)N1CCc2ncnc(N3CC=CC3)c2CC1`, the activity change, negative = inhibition in assay [1] is -3.38%; in assay [2], -0.305%; in assay [3] it was 1.32%; in assay [4], -1.52%; in assay [5], -11.1%.
For `COc1ccc(-c2cc3n(n2)CC(C)(C(=O)NCc2ccccc2)N(CCc2ccccc2)C3=O)cc1` (configuration not stated), in that order: -0.811%, 3.13%, 2.43%, 4.09% and -0.259%.
Regarding `Cc1ccc(C)c(N2C(=O)CSc3c(c4ccccc4n3C)C2C(=O)NCc2ccccc2)c1` (configuration not stated), the activity change, negative = inhibition in assay [1] was 9.8%; in assay [2] it was 0%; in assay [3] it was 3.83%; in assay [4], -0.556%; in assay [5] it was 5.37%.
With `C=C1CCC2C(C)(C)C(O)CCC2(C)C1CCC(C)CCOC(C)=O` (configuration not stated), the activity change, negative = inhibition in assay [1] is -2.24%; in assay [2] it was 0.107%; in assay [3], 6.54%; in assay [4], -17.1%; in assay [5], -8.52%.
The like results for `COc1ccc(CN2CC3(CCN(S(=O)(=O)c4c(C)nn(C)c4C)CC3)C2=O)cc1` were, in that order, -3.02%, -12.2%, -2.53%, -13.8% and -1%.
For the compound `CCOc1ccccc1CN1C(=O)c2ccc(-c3ccco3)n2CC1(C)C(=O)NC1CCCC1` (configuration not stated), the activity change, negative = inhibition in assay [1] is -4.81%; in assay [2], 0.749%; in assay [3], 8.43%; in assay [4] it was 5.43%; in assay [5] it was 1.54%.
In the case of `Cc1cccc(CC(=O)N2CC(Oc3ccccc3-c3noc(C)n3)C2)c1`, the activity change, negative = inhibition was -8.84% in assay [1]; -2.23% in assay [2]; -0.368% in assay [3]; -12.9% in assay [4]; -2.21% in assay [5].
Regarding `CCN1C(=O)CN(C(=O)CC(C)C)CC12CCOCC2`, the activity change, negative = inhibition in assay [1] was -1.83%; in assay [2] it was -0.469%; in assay [3], -1.52%; in assay [4] it was 3.31%; in assay [5], 4.73%.
Regarding `COC(=O)c1c(C)[nH]c(C)c1C(=O)c1ccccc1Cc1ccccc1`, the activity change, negative = inhibition in assay [1] is -5%; in assay [2], 8.77%; in assay [3], -0.462%; in assay [4], -8.84%; in assay [5] it was 10.3%.
The like results for `Cc1cc(C)c(NS(=O)(=O)c2cc3c(cc2Cl)n(C)c(=O)n3C)c(C)c1` were, in that order, 13.2%, 0.128%, -29.2%, 3.52% and 7.72%.
For `O=C1c2ccccc2C(=O)c2cc(S(=O)(=O)N(CCO)CCO)ccc21`, the activity change, negative = inhibition was -27.7% in assay [1]; -1.77% in assay [2]; -1.92% in assay [3]; -2.42% in assay [4]; -68.4% in assay [5].
In the case of `CC(=O)N1CC[C@H](c2nc3ccc(C#N)cc3[nH]2)C1`, the activity change, negative = inhibition in assay [1] was -7.44%; in assay [2] it was -5.22%; in assay [3], -26.1%; in assay [4], -8.26%; in assay [5], -5.64%.
As for `O=C(C1CCN([S+](=O)([O-])c2cccs2)C1)N1CCC(c2nc3ncccc3[nH]2)CC1` (configuration not stated), the activity change, negative = inhibition is 40.1% in assay [1]; 4.55% in assay [2]; -3.23% in assay [3]; -0.818% in assay [4]; -3.81% in assay [5].
The like results for `O=C1[C@@H]2C[C@@H](CN2Cc2ccc3c(c2)OCO3)Oc2ccccc2N1CC1CC1` were, in that order, -4.88%, -2.77%, -2.49%, -13.6% and -0.692%.
Turning to `Cc1c(Cl)cccc1N1C(=O)c2cc3sccc3n2CC1(C)C(=O)NC1CCC(C)CC1` (configuration not stated), the activity change, negative = inhibition came to 4.43% in assay [1]; 2.65% in assay [2]; 7.04% in assay [3]; 1.91% in assay [4]; 0.5% in assay [5].
Regarding `CC[C@H]1OC(=O)[C@H](C)[C@@H](O[C@H]2C[C@@](C)(OC)[C@@H](O)[C@H](C)O2)[C@H](C)[C@@H](O[C@H]2O[C@H](C)C[C@H](N(C)C)[C@H]2O)[C@](C)(O)C[C@@H](C)C(=O)[C@H](C)[C@@H](O)[C@]1(C)O`, the figures for the activity change, negative = inhibition in assay [1] and in assay [3] were -2% and 6.41%, respectively.
`CC(C)(C)c1cc2n(n1)CC(C)(C(=O)NC1CCCCCC1)N(c1ccc(F)cc1)C2=O` (configuration not stated): the activity change, negative = inhibition in assay [1] was -5.42%; in assay [2] it was 2.45%; in assay [3] it was -0.908%; in assay [4], -6.73%; in assay [5] it was -4.29%.
Take `CCCn1c(=O)c2ccc(C(=O)NC(C)C)cc2n2c(=O)n(CC(=O)Nc3ccc(C)c(F)c3)nc12`: the activity change, negative = inhibition in assay [1] is -3.47%; in assay [2] it was 0.932%; in assay [3], -2.86%; in assay [4] it was -1.22%; in assay [5], -0.408%.
With `CCOc1nc2cccc(C(=O)OCc3oc(=O)oc3C)c2n1Cc1ccc(-c2ccccc2-c2noc(O)n2)cc1`, the activity change, negative = inhibition in assay [1] is -4.85%; in assay [2], -1.46%; in assay [3] it was 13.4%; in assay [4], -21.1%; in assay [5] it was -4.65%.
For the compound `CCC(C)NC(=O)c1ccc2c(=O)n(C)c3nn(CC(=O)Nc4cccc(C)c4)c(=O)n3c2c1` (configuration not stated), the activity change, negative = inhibition in assay [1] is -1.58%; in assay [2], 0.198%; in assay [3], 2.86%; in assay [4] it was 0.231%; in assay [5] it was 4.08%.
Take `Cc1sc2ccn(CC(C)C)c(=O)c2c1C(=O)N1CCCCC1`: the activity change, negative = inhibition is -8.64% in assay [1]; -2.25% in assay [2]; 0.57% in assay [3]; -5.84% in assay [4]; -13% in assay [5].
`O=C(c1cc(-c2ccsc2)c2nncn2n1)N1CCN(Cc2ccccc2)CC1`: the activity change, negative = inhibition in assay [1] was -9.42%; in assay [2], -10.9%; in assay [3] it was -5.87%; in assay [4], -22.4%; in assay [5], -21.5%.
